Source: US12116397B2, “IL-IR-I binding polypeptide” (Swedish Orphan Biovitrum AB (publ), priority 2017, dated 2024)
Read-outs that look alike come from different tables or passages of the source.

Experiments:
TF-1 cells = assay: In vitro IL-1β neutralization assay (TF-1 cell assay); format: cell-based; conditions: His6-Z polypeptides, IL-1β inhibition in TF-1 cell assay, Table 12 (first matured library)
Description: The TF-1 cell line proliferates in response to many different cytokines including IL-1β. This cell line was used to assess the ability of primary IL-1R1 binders to inhibit IL-1β actions. TF-1 cells were maintained in RPM11640 with L-glutamine (Lonza) supplemented with 10% FCS (Gibco), Penicillin-Streptomycin (Lonza) and 2 ng/ml rhGM-CSF (R&D Systems). Prior to use, cells were washed twice in RPM11640 without rhGM-CSF. Cells were then counted and dispensed into 96 well flat bottomed plates at a density of 3×10^4 cells per well. In separate plates, serial dilutions of the inhibitory binders; His6-tagged IL-1R-I binding Z variants, with a concentration range of 400-0.1 nM, or the IL-1R-I binding protein Kineret (anakinra, Sobi), with a concentration range of 0.3-0.0003 nM, were incubated in the presence of 0.6 nM IL-1β (PeproTech). The pre-mixed complexes of the Z variant polypeptides and IL-13 were transferred to wells containing TF-1 cells. The cells were stimulated for 72 h at 37° C. in a humidified 5% CO2 atmosphere. During the last four hours of incubation, 19 μl of 2× diluted CCK-8 (Fluka, Sigma Aldrich), was added per well to determine the proliferative responses. The absorbance was measured at 450 nm using a microplate reader (Victor3, Perkin Elmer). The data on cell growth was assessed by non-linear regression to a four-parameter dose-response curve, and the half maximal inhibitory concentration (IC50) was determined using GraphPadPrism program.
(§1) His6-tagged IL-1R-I specific Z variants were tested for their inhibitory capacity in the TF-1 cell assay. The assay was run as described in Example 2. The data on cell growth was assessed by non-linear regression to a four-parameter dose-response curve, and IC50 values were determined using GraphPadPrism program. His6-tagged Z12967 was included for comparison.
as §1, with “Z12967, Z16065, Z16163 and Z18557 were” for “Z12967 was”

hIL-1R-I = molecular target: T1, hIL-1R-I (Homo sapiens, UniProt P14778); assay: Biacore affinity/kinetic analysis of His6-tagged Z variants, human IL-1R-I; format: binding
T1 construct: purchased R&D Systems 269-1R/CF
T1 sequence (P14778 18-569): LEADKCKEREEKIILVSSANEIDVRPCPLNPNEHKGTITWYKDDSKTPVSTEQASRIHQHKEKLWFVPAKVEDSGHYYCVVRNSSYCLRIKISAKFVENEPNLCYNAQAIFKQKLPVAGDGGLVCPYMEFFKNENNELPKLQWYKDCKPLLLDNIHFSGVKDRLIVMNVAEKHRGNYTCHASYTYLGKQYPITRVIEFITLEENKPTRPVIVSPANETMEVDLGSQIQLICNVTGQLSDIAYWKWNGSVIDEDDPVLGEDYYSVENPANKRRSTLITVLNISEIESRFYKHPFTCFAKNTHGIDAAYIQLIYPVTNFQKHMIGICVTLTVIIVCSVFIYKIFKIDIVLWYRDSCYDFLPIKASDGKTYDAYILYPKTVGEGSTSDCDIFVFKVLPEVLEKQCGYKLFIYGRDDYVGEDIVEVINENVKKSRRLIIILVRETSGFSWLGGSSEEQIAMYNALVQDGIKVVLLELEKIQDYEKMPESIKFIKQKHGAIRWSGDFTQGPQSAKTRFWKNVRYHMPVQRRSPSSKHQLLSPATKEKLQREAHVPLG
Description: Affinities (KD) for human and cynomolgus IL-1R-I were determined for His6-tagged Z variants using a Biacore 2000 instrument (GE Healthcare). hIL-1R-I or cIL-1R-I-His6 was immobilized on the carboxylated dextran layer in different flow cells of a CM5 chip (GE Healthcare, cat. no. BR100012). The immobilization was performed using amine coupling chemistry according to the manufacturer's protocol. Acetate pH 4.5 (GE Healthcare, cat. no. BR100350) was used for ligand dilution and HBS-EP (GE Healthcare, cat. no. BR100188) was used as running buffer. One flow cell surface on the chip was activated and deactivated for use as blank during analyte injections. In the kinetic experiment, HBS-EP was used as running buffer, the flow rate was 50 μl/min and the temperature was 25° C. The analytes, i.e. the Z variants, were each diluted in HBS-EP buffer to final concentrations of 40 nM and 10 nM, and were injected over the target chip surfaces for 2 min, followed by dissociation in running buffer for 8 min. Kinetic constants were calculated from the obtained sensorgrams using a 1:1 binding model, in the BiaEvaluation software 4.1 (GE Healthcare).
The kinetic constants (kon and koff) and affinities (KD) for human and cynomolgus IL-1R-I were determined for His6-tagged Z variants using a Biacore 2000 instrument (GE Healthcare). The experiment was run essentially as described in Example 2, using 100, 10 and 1 nM of the Z variants. The analyte injection time was 3 min followed by 15 min dissociation and 2×5 s glycine pH 3.0 (GE Healthcare, cat. no. BR100357), supplemented with 0.5 M NaCl, was used for regeneration of the surfaces between the cycles. Kinetic constants were calculated from the obtained sensorgrams of two or three concentrations of the respective Z variant, using a 1:1 binding model in the BiaEvaluation software 4.1 (GE Healthcare). His6-tagged Z12967 was included in the assay for comparison.
The kinetic constants (kon and koff) and affinities (KD) for human and cynomolgus IL-1R-I were determined for His6-tagged Z variants using a Biacore 2000 instrument (GE Healthcare). The experiment was run essentially as described in Example 5, using 48, 12, 3 and 0.75 nM of the Z variants. The analyte injection time was 3 min followed by 6 min dissociation and 2×5 s glycine pH 3.0, supplemented with 0.5 M NaCl, was used for regeneration of the surfaces between the cycles. Kinetic constants were calculated from the obtained sensorgrams of three or four concentrations of the respective Z variant, using a 1:1 binding model in the BiaEvaluation software 4.1 (GE Healthcare). His6-tagged Z12967 (SEQ ID NO:9), Z16065 (SEQ ID NO:268), Z16163 (SEQ ID NO:359) and Z18557 (SEQ ID NO:1205) were included in the assay for comparison.

[1] = Circular dichroism (CD) spectroscopy analysis, melting temperature and refolding; format: physicochemical; conditions: for Melting temperatures (Tm): His6-tagged Z variants, CD variable temperature measurement; for thermo-stability and α-helical content versus Z variants having alanine in position X5: His6-tagged, valine or isoleucine in position X5 of the BM (Example 9)
Description: Purified His6-tagged Z variants were diluted to 0.5 mg/ml in PBS. For each diluted Z variant, a CD spectrum at 250-195 nm was obtained at 20° C. In addition, a variable temperature measurement (VTM) was performed to determine the melting temperature (Tm). In the VTM, the absorbance was measured at 221 nm while the temperature was raised from 20 to 90° C., with a temperature slope of 5° C./min. A new CD spectrum was obtained at 20° C. after the heating procedure in order to study the refolding ability of the Z variants. The CD measurements were performed on a Jasco J-810 spectropolarimeter (Jasco Scandinavia AB) using a cell with an optical path length of 1 mm.
CD was analyzed for His6-tagged Z variants, as described in Example 2.

[2] = His6-Z polypeptides, 100, 10 and 1 nM (Example 5)
[3] = His6-Z polypeptides, 100, 10 and 1 nM (Example 5), read-out: KD
[4] = His6-Z polypeptides binding to human IL-1R-I, Biacore, Table 19
[5] = His6-Z polypeptides binding to human IL-1R-I, Biacore, Table 19, read-out: KD

IC50 (TF-1 cells)	koff (hIL-1R-I; [2])	kon (hIL-1R-I; [2])	Kd (hIL-1R-I; [3])	koff (hIL-1R-I; [4])	kon (hIL-1R-I; [4])	Kd (hIL-1R-I; [5])	Kd (hIL-1R-I; His6-tagged, 48, 12, 3 and 0.75 nM, comparison variants (Example 9), read-out: KD to human IL-1R-I)	Substance	Melting temperatures (Tm) ([1]; Table 21)	Melting temperatures (Tm) ([1]; Table 13)	thermo-stability and α-helical content versus Z variants having alanine in position X5 [1]
4.3 nM	0.0022 s⁻¹	4.6e+06 M⁻¹ s⁻¹	0.47 nM					Z16072: IL-1R-I binding Z variant (VDAKYAKEVEIAQMEIFELPNLTRKQYTAFIRKLLDDPSQSSELLSEAKKLNDSQAPK; Engineered IL-1R-I binding polypeptide)			
11.5 nM	0.0036 s⁻¹	2.1e+06 M⁻¹ s⁻¹	1.7 nM					Z16165: IL-1R-I binding Z variant (VDAKYAKEIEVAQMEIYSLPNLTRKQYTAFIRKLFDDPSQSSELLSEAKKLNDSQAPK; Engineered IL-1R-I binding polypeptide)			
32.7 nM	0.0036 s⁻¹	6.6e+06 M⁻¹ s⁻¹	0.55 nM					Z16378: IL-1R-I binding Z variant (VDAKYAKEVESAYFEIFKLPNLTRKQYTAFIRKLLDDPSQSSELLSEAKKLNDSQAPK; Engineered IL-1R-I binding polypeptide)			
24.2 nM	0.0056 s⁻¹	2.5e+06 M⁻¹ s⁻¹	2.2 nM					Z16219: IL-1R-I binding Z variant (VDAKYAKEIEHAQLEIFSLPNLTRKQYTAFIRKLLDDPSQSSELLSEAKKLNDSQAPK; Engineered IL-1R-I binding polypeptide)			
4.8 nM	0.0016 s⁻¹	3.1e+06 M⁻¹ s⁻¹	0.53 nM					Z16143: IL-1R-I binding Z variant (VDAKYAKEIEAAQMEIFRLPNLTRKQYTAFIRKLLDDPSQSSELLSEAKKLNDSQAPK; Engineered IL-1R-I binding polypeptide)			
				0.003 s⁻¹	2.2e+07 M⁻¹ s⁻¹	0.14 nM		Z18853 (VDAKYAKEIEEIQMEIFYLPNLTRRQYTAFIRKLFDDPSQSSELLSEAKKLNDSQAPK; His6 tag; Engineered IL-1R-I binding polypeptide)	59 °C		
			0.55 nM				0.76 nM	Z16163: IL-1R-I binding Z variant (VDAKYAKEVERAQMEIFELPNLTRRQYTAFIRKLLDDPSQSSELLSEAKKLNDSQAPK; Engineered IL-1R-I binding polypeptide)		57 °C	
				0.0023 s⁻¹	1.3e+07 M⁻¹ s⁻¹	0.17 nM		Z18850 (VDAKYAKEIEEIQMEIFALPNLTRRQYTAFIRKLLDDPSQSSELLSEAKKLNDSQAPK; His6 tag; Engineered IL-1R-I binding polypeptide)	62 °C		
				0.0057 s⁻¹	4.6e+07 M⁻¹ s⁻¹	0.12 nM		Z18856 (VDAKYAKELEEIQMEIFHLPNLTRRQYTAFIRKLLDDPSQSSELLSEAKKLNDSQAPK; His6 tag; Engineered IL-1R-I binding polypeptide)	61 °C		
				0.0043 s⁻¹	2.1e+07 M⁻¹ s⁻¹	0.2 nM		Z19170: IL-1R-I binding Z variant with valine or isoleucine in position X5 (VDAKYAKEVEEIQMEIFELPNLTRRQYTAFIRKLLDDPSQSSELLSEAKKLNDSQAPK; His6 tag; Engineered IL-1R-I binding polypeptide)	52 °C		not substantially different
				0.0048 s⁻¹	2.2e+07 M⁻¹ s⁻¹	0.22 nM		Z18863 (VDAKYAKEVEEVQMEIFGLPNLTRRQYTAFIRKLLDDPSQSSELLSEAKKLNDSQAPK; His6 tag; Engineered IL-1R-I binding polypeptide)	57 °C		
				0.0024 s⁻¹	8.6e+06 M⁻¹ s⁻¹	0.27 nM		Z18893 (VDAKYAKEIEEIQMEIFGLPNLTRKQYTAFIRKLLDDPSQSSELLSEAKKLNDSQAPK; His6 tag; Engineered IL-1R-I binding polypeptide)	60 °C		
				0.0039 s⁻¹	1.7e+07 M⁻¹ s⁻¹	0.22 nM		Z19143: IL-1R-I binding Z variant with valine or isoleucine in position X5 (VDAKYAKEVEEIQLEIFHLPNLTRRQYTAFIIKLLDDPSQSSELLSEAKKLNDSQAPK; His6 tag; Engineered IL-1R-I binding polypeptide)	56 °C		not substantially different
				0.0052 s⁻¹	4.2e+07 M⁻¹ s⁻¹	0.13 nM		Z18762 (VDAKYAKELEAIQMEIFRLPNLTRRQYTAFIRKLLDDPSQSSELLSEAKKLNDSQAPK; His6 tag; Engineered IL-1R-I binding polypeptide)	62 °C		
